# In the supplement of paper PMC3334620:
# The full ranking holds about 33,000 sequences; the median of “E-score (-0.5 to 0.5)” is about -0.053, and the highest 2% start at about 0.37. This is one part of the list.
# Molecular target: Hap1 (UniProt P0CE41)
# Experiment: PBM E-score (8-mer binding enrichment) (E-score (-0.5 to 0.5)); higher = stronger / more preferred TF binding; most listed sequences are background and not binding sites
# Details: protein concentration: 200 nM; construct: GST-DNA-binding domain
# How it was run: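 Yeast transcription factors carrying a GST tag, as full-length proteins or DNA-binding domains, were produced by PURExpress in vitro transcription/translation. About 100-200 nM protein was applied to universal all-10-mer Agilent arrays, double-stranded by primer extension on fresh or once-stripped slides. Bound protein was detected with fluorescent anti-GST, and scans were normalised with masliner. The Universal PBM Analysis Suite gave each ungapped eight-base word, pooled with its reverse complement, an E-score, a modified Wilcoxon-Mann-Whitney statistic.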
# Chain of UniProt P0CE41 (P0CE41 whole entry): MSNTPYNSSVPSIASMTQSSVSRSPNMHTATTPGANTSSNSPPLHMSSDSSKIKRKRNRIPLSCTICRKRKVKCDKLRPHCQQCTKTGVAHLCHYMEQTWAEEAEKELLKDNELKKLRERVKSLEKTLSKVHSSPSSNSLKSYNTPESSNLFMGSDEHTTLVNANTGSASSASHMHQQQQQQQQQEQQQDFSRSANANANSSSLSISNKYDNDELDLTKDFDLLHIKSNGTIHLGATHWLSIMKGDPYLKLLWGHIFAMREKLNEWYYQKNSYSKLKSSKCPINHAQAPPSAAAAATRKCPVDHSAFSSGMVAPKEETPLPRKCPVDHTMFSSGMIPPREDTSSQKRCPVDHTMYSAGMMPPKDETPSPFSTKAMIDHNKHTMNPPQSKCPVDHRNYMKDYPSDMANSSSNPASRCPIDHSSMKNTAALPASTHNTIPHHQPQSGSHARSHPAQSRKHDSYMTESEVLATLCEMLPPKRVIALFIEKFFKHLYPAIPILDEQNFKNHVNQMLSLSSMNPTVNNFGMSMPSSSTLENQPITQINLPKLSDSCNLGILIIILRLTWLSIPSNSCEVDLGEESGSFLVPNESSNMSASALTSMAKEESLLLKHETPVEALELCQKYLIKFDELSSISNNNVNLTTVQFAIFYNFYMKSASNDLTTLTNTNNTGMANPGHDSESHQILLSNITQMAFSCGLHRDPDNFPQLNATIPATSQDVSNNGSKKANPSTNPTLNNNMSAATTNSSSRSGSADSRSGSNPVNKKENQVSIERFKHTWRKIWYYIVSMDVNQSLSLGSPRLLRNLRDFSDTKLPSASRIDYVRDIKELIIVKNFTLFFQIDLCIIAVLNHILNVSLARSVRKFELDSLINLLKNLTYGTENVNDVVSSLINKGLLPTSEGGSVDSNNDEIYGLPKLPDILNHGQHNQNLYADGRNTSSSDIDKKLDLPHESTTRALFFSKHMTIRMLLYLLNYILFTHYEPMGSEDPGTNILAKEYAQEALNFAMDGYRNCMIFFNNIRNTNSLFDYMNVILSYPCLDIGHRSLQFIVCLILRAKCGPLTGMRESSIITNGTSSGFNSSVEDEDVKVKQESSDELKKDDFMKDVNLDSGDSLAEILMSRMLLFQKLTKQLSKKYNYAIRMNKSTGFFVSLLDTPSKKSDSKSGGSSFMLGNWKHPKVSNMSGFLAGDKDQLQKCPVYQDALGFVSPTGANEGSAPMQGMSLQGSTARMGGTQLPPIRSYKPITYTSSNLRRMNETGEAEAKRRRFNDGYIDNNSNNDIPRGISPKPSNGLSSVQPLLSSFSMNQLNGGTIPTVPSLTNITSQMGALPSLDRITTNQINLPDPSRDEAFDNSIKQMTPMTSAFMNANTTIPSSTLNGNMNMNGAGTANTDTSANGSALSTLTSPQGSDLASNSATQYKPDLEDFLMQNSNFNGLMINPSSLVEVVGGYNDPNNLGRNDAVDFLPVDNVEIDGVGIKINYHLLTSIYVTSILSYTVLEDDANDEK
row,Sequence,PBM E-score
1,AAGAACGT,-0.194
2,CCCCATGC,0.0776
3,ATCAGTAC,-0.0691
4,CAGACCCG,0.293
5,ACGGGCAA,0.058
6,CTACTATC,0.0863
7,CAATTCAG,-0.227
8,GTCTAAAC,0.0894
9,AACCAATG,-0.255
10,AATTATAG,-0.109
11,GCGTATGA,-0.0917
12,AAGCCAAC,-0.202
13,AGGTAAGA,-0.0699
14,CTAGCGAG,-0.248
15,ATCAACAT,-0.109
16,CCAGTCCC,-0.0296
17,CAGCGTGC,-0.0404
18,TGCCTCCA,-0.287
19,ATTTTCAC,0.0603
20,GACCTCTC,0.0308
21,CTCGGAAG,0.174
22,AACTACCG,0.236
23,CTAGAGAC,-0.258
24,GGGGTTGA,-0.0627

row,Sequence,PBM E-score
1,GATAAACC,0.174
2,CGGGTCGA,0.108
3,ACATGTGC,-0.00587
4,ACGGATTG,0.229
5,GATGCTGC,-0.183
6,AAAGGGTG,-0.185
7,CCTACCGA,0.0508
8,CGTTGGCA,-0.0275
9,AACATCGT,0.0338
10,ACCGTGTG,0.0184
11,GAGGTCTA,-0.299
12,GTTAGGCA,-0.257
13,CGCAATCC,0.246
14,AATTACTC,-0.0177
15,ACTGTCAG,-0.224
16,CGGCTTTC,0.259
17,AGCTAGAG,-0.28
18,ACCCCTCT,-0.00322
19,ACTCCTTC,-0.209
20,CCAAATAG,-0.14
21,CATAAATA,-0.199
22,CGGTGTAC,0.139
23,CTGAAAAC,-0.107
24,ATACTGAC,-0.0815

row,Sequence,PBM E-score
1,TCGAACGA,-0.153
2,GAGGTATC,0.0796
3,GCGATGGA,0.252
4,AGTATATA,0.177
5,CGCCCCAC,-0.148
6,AGCTTGCC,-0.108
7,AGGACTCC,0.0465
8,AACGAGCC,-0.0331
9,CCACTAGA,-0.227
10,CCCACGAG,-0.107
11,ACGTGGAG,-0.322
12,AGACTGTC,-0.108
13,CCGGCTAC,0.214
14,ATGCCCTA,-0.164
15,CCTCTTCG,0.04
16,CTTGCCTC,0.0643
17,CTGACGCC,-0.00359
18,AAAGGTAG,-0.311
19,CTGCCCCC,-0.263
20,ACCACCTA,-0.172
21,CACTGAAC,-0.0571
22,ACGCGGTC,0.179
23,ATCCCTAG,-0.146
24,AAGGGCAC,-0.161

row,Sequence,PBM E-score
1,GCATTGCA,-0.015
2,CGCGGCTA,0.301
3,CGGAGTCC,0.211
4,ACTCATAA,-0.101
5,CTCTAAAG,-0.171
6,AGCTCATG,-0.257
7,ACGCAACC,0.00928
8,GACACATC,0.0707
9,AAGAGCCA,-0.0336
10,CCTTTTAA,-0.0918
11,CTGCGATA,0.00734
12,CTCATGGA,-0.179
13,ATCCAATG,-0.241
14,AAGAGACC,-0.0519
15,GGGATGTA,0.124
16,GTATTGAC,-0.188
17,ACGACCGA,0.275
18,GGGGAAAC,0.212
19,GACACTCC,0.0522
20,CCAGGAGC,-0.101
21,CAAGCCCA,-0.29
22,CAATCGAA,0.126
